{"source": "PubChem BioAssay AID488969", "about": "(Vanderbilt High Throughput Screening Facility, 2010)", "note": "Whole data set: some 110,000 compounds, median “z-score” near -0.1, cut for the highest 2% near 2. Some of the results follow. The source made the active and inactive calls.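 Rule for the calls: active = z-score in the third read window above 3 or below -3; inactive = the rest.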", "data": [{"molecular_target": "Metabotropic glutamate receptor 8 (Rattus norvegicus) (UniProt P70579)", "sequence (P70579 whole entry, looked up)": "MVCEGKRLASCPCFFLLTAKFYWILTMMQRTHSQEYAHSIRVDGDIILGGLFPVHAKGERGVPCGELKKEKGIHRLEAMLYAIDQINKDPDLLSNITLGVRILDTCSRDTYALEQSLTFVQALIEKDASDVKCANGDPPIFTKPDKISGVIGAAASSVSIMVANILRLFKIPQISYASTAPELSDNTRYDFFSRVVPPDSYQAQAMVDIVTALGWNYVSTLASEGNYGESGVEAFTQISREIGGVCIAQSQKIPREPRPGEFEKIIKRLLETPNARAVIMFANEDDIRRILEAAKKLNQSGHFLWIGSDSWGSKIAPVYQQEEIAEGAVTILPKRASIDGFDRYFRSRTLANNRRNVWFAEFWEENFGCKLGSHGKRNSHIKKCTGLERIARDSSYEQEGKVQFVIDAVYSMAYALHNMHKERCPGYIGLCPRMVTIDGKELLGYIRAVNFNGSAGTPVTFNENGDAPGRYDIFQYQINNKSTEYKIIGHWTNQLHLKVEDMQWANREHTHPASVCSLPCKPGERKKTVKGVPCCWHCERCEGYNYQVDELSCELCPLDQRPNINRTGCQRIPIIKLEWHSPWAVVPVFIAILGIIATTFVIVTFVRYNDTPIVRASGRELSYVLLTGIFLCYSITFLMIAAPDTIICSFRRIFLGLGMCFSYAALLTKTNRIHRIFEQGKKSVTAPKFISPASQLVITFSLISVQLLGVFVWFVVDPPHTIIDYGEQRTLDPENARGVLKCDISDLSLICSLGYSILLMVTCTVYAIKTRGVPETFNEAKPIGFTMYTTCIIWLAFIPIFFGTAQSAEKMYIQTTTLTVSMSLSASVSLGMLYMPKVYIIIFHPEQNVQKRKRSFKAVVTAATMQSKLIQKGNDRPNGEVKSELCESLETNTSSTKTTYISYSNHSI", "test": "mGluR8 Gi/Go-coupled signaling modulation – cell-based, rat, thallium flux, HTS, primary screen (AID 488969)", "conditions": "HEK293 rat mGluR8, GIRK (G protein-gated inwardly rectifying potassium channel) thallium flux, FluoZin2; at 10 µM; stronger effect = higher value; submaximal glutamate (EC20) added with thallium", "values": [{"compound": "COc1ccc(CNC(=O)COC(=O)c2cnccn2)cc1", "z-score": 0.357}, {"compound": "CCOC(=O)CSc1nc2cccnc2n1-c1ccc(F)cc1", "z-score": -1.83}, {"compound": "CCOC(=O)C1CCN(C(=O)CN(c2ccc(OC)cc2)S(=O)(=O)c2c(C)noc2C)CC1", "z-score": 0.0476}, {"compound": "CCn1nc(CCC(=O)O)c2ccccc2c1=O", "z-score": -0.706}, {"compound": "Fc1cccc(Cl)c1CNCc1ccccc1Cl", "z-score": -0.0951}, {"compound": "Clc1ccc(Cc2noc(CN3CCN(c4ccccc4)CC3)n2)c(Cl)c1", "z-score": -0.138}, {"compound": "CN(C)CCNC(=O)CCCNC(=O)Cn1cnc2sc3c(c2c1=O)CCCC3", "z-score": 0.58}, {"compound": "CN(C)/N=C/c1c(O)ccc2ccccc12", "z-score": -0.163}, {"compound": "Cc1ccnc(NC(=O)c2ccc(NC(=O)c3ccco3)cc2)c1", "z-score": -0.719}, {"compound": "Cc1ccccc1Cn1nnc(-c2cccc(C(=O)O)c2)n1", "z-score": -0.109}, {"compound": "CCCCOc1ccc(-c2nnn(CC(=O)Nc3ncc(CC(=O)OCC)s3)n2)cc1", "z-score": 0.0365}, {"compound": "COc1cc(/C=N/NC(=O)Nc2ccccc2)ccc1OC(C)=O", "z-score": -0.111}, {"compound": "O=C(COc1ccccc1)Nc1ccccc1Oc1ccccc1", "z-score": -0.146}, {"compound": "COC(=O)c1cc2nc(-c3ccc(OC)c(OC)c3)cc(C(F)(F)F)n2n1", "z-score": -0.569}, {"compound": "CCOc1ccc(Oc2nc(Nc3ccc(C)cc3)nc(N(C)C)n2)nn1", "z-score": -0.393}, {"compound": "O=C(Nc1ccc(F)cc1)N1CCN2C(=O)c3ccccc3C12c1ccccc1", "note": "(stereo not given)", "z-score": -0.00996}, {"compound": "O=C(c1c[nH]c(=O)n(-c2ccccc2)c1=O)N1CCc2ccccc21", "z-score": 0.262}, {"compound": "O=C(c1nn2c(C(F)(F)F)cc(-c3ccccc3)nc2c1Cl)N1CCOCC1", "z-score": -0.565}, {"compound": "Cc1ccc(-c2nc(CS(=O)CC(=O)NC3CCCC3)c(C)o2)cc1", "note": "(stereo not given)", "z-score": 0.11}, {"compound": "COc1ccc(/C=N/NC(=O)CSc2n[nH]c(=O)[nH]c2=O)cc1", "z-score": 0.305}, {"compound": "Cc1ccc(Nc2nc(N)nc(CSC(=S)N3CCOCC3)n2)c(C)c1", "z-score": 0.00021}, {"compound": "C=CCn1c(CSc2nc3ccccc3s2)nnc1SCC(=O)NCc1ccco1", "z-score": -0.276}, {"compound": "CCCS(=O)(=O)N1CCCC(C(=O)NCCCN(C)c2ccccc2)C1", "note": "(stereo not given)", "z-score": 0.0444}, {"compound": "CCOc1ccc(Cn2ccnc2)cc1[N+](=O)[O-]", "z-score": 0.0279}, {"compound": "CCNC(=O)CC1C(=O)N(CC)C(=S)N1NC(=O)c1ccc(Cl)cc1", "note": "(stereo not given)", "z-score": -0.344}, {"compound": "O=C(NC1CCc2ccccc21)C1CCN(S(=O)(=O)c2ccc(-n3cnnn3)cc2)CC1", "note": "(stereo not given)", "z-score": 0.204}, {"compound": "CCOC(=O)COc1ccc2nsnc2c1Cl", "z-score": 0.0791}, {"compound": "CCOc1ccc2c(c1)s/c(=N\\S(=O)(=O)c1ccc(OC)cc1)n2C(F)F", "z-score": -0.0602}, {"compound": "CCCCCCCOC(=O)C[N+](C)(C)CCOC1CC2CCC1(C)C2(C)C", "note": "(stereo not given)", "z-score": 0.193}, {"compound": "Cc1nc(S(=O)(=O)c2ccc(Cl)cc2)nc2c1CCC2", "z-score": -0.176}, {"compound": "CCCCN(CCCC)c1nc(OC)nc(-n2nnc(C(C)=O)c2C)n1", "z-score": -1.5}, {"compound": "Cc1ccc(-n2nnnc2SCC(=O)c2ccc3c(c2)NC(=O)CO3)c(C)c1", "z-score": -0.0959}, {"compound": "COc1ccc2c(c1)c(C(=O)CN1CCOCC1)c(C)n2C", "z-score": -0.445}, {"compound": "CC(/C=C/c1ccc(OCc2ccccc2)cc1)=N\\O", "z-score": 0.113}, {"compound": "CCOc1ccccc1C(=O)OCC(=O)Nc1cc(Cl)ccc1Oc1ccccc1", "z-score": -0.66}, {"compound": "Cc1ccc(CCNC(=O)C2CCCN(S(=O)(=O)c3cnc[nH]3)C2)cc1", "note": "(stereo not given)", "z-score": -0.182}, {"compound": "COCc1cc(=O)[nH]c(Nc2nc3ccc(C)cc3o2)n1", "z-score": -0.654}, {"compound": "O=C(CSc1nnc(-c2cccnc2)n1Cc1ccco1)c1ccccc1", "z-score": -0.0629}, {"compound": "O=C(O)C1CCCCC1C(=O)Nc1ccccn1", "note": "(stereo not given)", "z-score": 0.212}, {"compound": "COc1cccc(Cn2c(NCC(C)C)nc3c2c(=O)n(C)c(=O)n3C)c1", "z-score": -0.387}, {"compound": "CCOC(=O)c1c(-c2ccccc2)oc2ccc(OC)cc12", "z-score": 0.0333}, {"compound": "CN1c2ccsc2C(O)=C(C(=S)Nc2ccc(F)c(Cl)c2)S1(=O)=O", "z-score": 0.653}, {"compound": "COc1cccc(-c2cnc(OC(C)(C)C)nc2OC(C)(C)C)c1", "z-score": -0.0368}, {"compound": "CSc1nc(Cl)c(Cc2ccc(OCC(C)C)cc2)c(N2CCOCC2)n1", "z-score": -0.0578}, {"compound": "Cc1cccc(N(C(=O)CCC(=O)Nc2cccnc2)C(C(=O)NC2CCCC2)c2ccncc2)c1", "note": "(stereo not given)", "z-score": 0.41}, {"compound": "COc1cc(Br)cc(CN2CCN(C/C=C/c3ccccc3)CC2)c1O", "z-score": 0.0564}, {"compound": "Cc1ccc(S(=O)(=O)NCc2ccc(C(=O)NCCCN3CCN(C)CC3)cc2)cc1", "z-score": -0.409}, {"compound": "Cc1cc(C)c2nc(C(F)(F)F)nc(N3CC(C)OC(C)C3)c2c1", "note": "(stereo not given)", "z-score": -0.0212}, {"compound": "CSc1nc2oc3c(c2c2nncn12)CC(C)(C)SC3", "z-score": -0.451}, {"compound": "CC(=O)NC(c1ccc(F)cc1)c1cccnc1", "note": "(stereo not given)", "z-score": 0.763}, {"compound": "Cc1ccc(-c2csc3nc(SCC(=O)N(C)C)n(Cc4ccccc4)c(=O)c23)cc1", "z-score": -1.11}, {"compound": "N#CC1=C(SCc2ccccc2)NC(=O)CC1c1ccccc1", "note": "(stereo not given)", "z-score": -0.391}, {"compound": "O=C(/C=C/c1ccc(F)cc1)NC(=S)Nc1ccccc1C(=O)NC1CCCCC1", "z-score": -0.118}, {"compound": "Cc1ccc2nc(NC3=NCN(Cc4ccc5c(c4)OCO5)CN3)nc(C)c2c1", "z-score": 0.799}, {"compound": "COc1cc(C)c(Cl)cc1S(=O)(=O)N(C)C", "z-score": -0.812}, {"compound": "CCOC(=O)c1sc(NC(=O)CCCn2nc([N+](=O)[O-])c(Cl)c2C)c(C(=O)OCC)c1C", "z-score": 0.013}, {"compound": "COc1ccc(-c2onc3ccc(Cl)cc23)cc1OC", "z-score": 0.79}, {"compound": "COCCCn1c(SCC(=O)NCc2ccccc2)nc2ccccc2c1=O", "z-score": 0.859}, {"compound": "Nc1n[nH]c(-c2ccccc2[N+](=O)[O-])n1", "z-score": -0.817}, {"compound": "CCS(=O)(=O)N1CCN(c2ccc([N+](=O)[O-])c(NCc3ccccc3)c2)CC1", "z-score": -0.422}, {"compound": "Cc1ccc(NC2=NC(C(=O)Nc3ccc(C)c(C)c3)CC(=O)N2)cc1", "note": "(stereo not given)", "z-score": 0.0681}, {"compound": "CC1CCc2nn(CC(=O)NCc3ccc(F)cc3)cc2C1", "note": "(stereo not given)", "z-score": -1.72}, {"compound": "O=C(NCC1CCS(=O)(=O)C1)NCC1CCS(=O)(=O)C1", "note": "(stereo not given)", "z-score": 0.468}, {"compound": "c1ccc(C(c2nnnn2C2CCCC2)N2CCN(c3nc4ccccc4s3)CC2)cc1", "note": "(stereo not given)", "z-score": 0.0979}, {"compound": "CCC1CCCN1Cn1cnc2c([nH]c3ccc(OC)cc32)c1=O", "note": "(stereo not given)", "z-score": "active: 6.77"}, {"compound": "Cc1cc(OC(=O)c2c(Cl)cc(Cl)cc2Cl)nc(C)n1", "z-score": -0.00584}, {"compound": "Cc1ccc2nc(NC(=O)CSc3nc4ccccc4o3)sc2c1", "z-score": 0.182}, {"compound": "Cc1cccc2cc(CN(Cc3ccco3)C(=O)NC3CCCCC3)c(=O)[nH]c12", "z-score": -0.979}, {"compound": "c1ccc2c(c1)nc(NCCN1CCOCC1)c1nncn12", "z-score": 0.494}, {"compound": "CCOC(=O)CSC1=NC(=O)/C(=C\\c2ccc(OC(C)=O)cc2)S1", "z-score": -0.9}]}]}
